These results are taken from PubChem BioAssay AID488969 (Vanderbilt High Throughput Screening Facility, 2010).

The structures appear in SMILES notation. In all, about 110,000 compounds were measured (“z-score”: median about -0.1, highest 2% from about 2 on). The list shows a part of the results. Calls of active or inactive are those of the source.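 Rule for the calls: active = z-score in the third read window above 3 or below -3; inactive = the rest.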

The assay has as its target Metabotropic glutamate receptor 8 (Rattus norvegicus) (UniProt P70579). As to the kind of experiment: mGluR8 Gi/Go-coupled signaling modulation – cell-based, rat, thallium flux, HTS, primary screen (AID 488969). The conditions noted are these: HEK293 rat mGluR8, GIRK (G protein-gated inwardly rectifying potassium channel) thallium flux, FluoZin2; at 10 µM; stronger effect = higher value; submaximal glutamate (EC20) added with thallium.
Chain of UniProt P70579 (P70579 whole entry, looked up): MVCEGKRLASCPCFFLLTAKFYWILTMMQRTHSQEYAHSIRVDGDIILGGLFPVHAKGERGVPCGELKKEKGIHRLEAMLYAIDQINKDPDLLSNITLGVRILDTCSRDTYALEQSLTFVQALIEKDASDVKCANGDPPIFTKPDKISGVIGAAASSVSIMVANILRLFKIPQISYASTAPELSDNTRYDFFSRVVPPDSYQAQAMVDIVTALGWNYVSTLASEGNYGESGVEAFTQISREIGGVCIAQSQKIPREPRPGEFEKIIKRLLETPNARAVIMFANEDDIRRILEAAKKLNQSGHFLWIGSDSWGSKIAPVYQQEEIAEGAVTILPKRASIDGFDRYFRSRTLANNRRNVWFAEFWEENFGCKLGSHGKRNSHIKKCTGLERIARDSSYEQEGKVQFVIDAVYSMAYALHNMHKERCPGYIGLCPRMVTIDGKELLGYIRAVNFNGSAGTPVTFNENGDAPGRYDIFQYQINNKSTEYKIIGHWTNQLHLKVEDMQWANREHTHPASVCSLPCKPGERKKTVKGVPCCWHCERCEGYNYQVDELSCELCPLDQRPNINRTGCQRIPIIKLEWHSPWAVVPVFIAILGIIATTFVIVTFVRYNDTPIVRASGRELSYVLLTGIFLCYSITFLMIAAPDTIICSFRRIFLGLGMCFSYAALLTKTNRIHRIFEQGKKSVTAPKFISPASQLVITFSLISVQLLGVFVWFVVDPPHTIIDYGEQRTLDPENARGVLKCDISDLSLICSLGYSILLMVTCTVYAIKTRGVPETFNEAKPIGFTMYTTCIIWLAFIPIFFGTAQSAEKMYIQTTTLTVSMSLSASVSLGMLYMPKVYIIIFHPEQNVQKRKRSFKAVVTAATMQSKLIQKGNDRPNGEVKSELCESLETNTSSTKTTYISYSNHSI
Turning to `Cn1c(N2CCOCC2)nc2c1c(=O)n(Cc1ccc(Cl)cc1)c(=O)n2C`, the z-score was -0.42.

Turning to `Cc1cc(C)nc(NC(=O)c2ccc([N+](=O)[O-])o2)n1`, the z-score is -0.191.

In turn, `CCN(C(=O)COC(=O)c1[nH]c(C)c(C(C)=O)c1C)C1CCS(=O)(=O)C1` (stereo not drawn) gave a z-score of -0.237.

Molecule `CC(C)C[C@@H](N)c1nnc(SCC(=O)c2ccc(Cl)cc2)o1` had a z-score of -0.138.

On to `Cc1cc(C)n(CC(O)Cn2ccc3ccccc32)n1` (stereo not drawn), for which the z-score is -0.208.

For the molecule `Cn1c(=O)c2[nH]c(Nc3ccccc3)nc2n(C)c1=O`, the z-score came out at 0.903.

For `COc1cc(C2C(C(=O)Nc3ccc(F)cc3)=C(C)Nc3nc(CCCO)nn32)cc(OC)c1OC` (stereo not drawn), the z-score was 0.418.

In turn, `N#CCCn1c(SCC(=O)Nc2ccc(N3CCOCC3)cc2)nc2ccccc21` registered a z-score of 2.51.

`O=C(Nc1nnc(CC(c2ccccc2)c2ccccc2)s1)c1ccco1` displayed a z-score of 0.156.

Molecule `CN(CC(=O)Nc1ccc(C#N)cc1)CC(=O)Nc1ccc(N2CCOCC2)cc1` displayed a z-score of -0.196.

Turning to `O=C(CNC(=O)c1ccccc1F)N/N=C/c1cc(Br)ccc1OC(=O)/C=C/c1ccco1`, the z-score is -0.338.

On to `O=[N+]([O-])c1ccc(NCCCN2CCOCC2)c(Cl)c1`, for which the z-score was -0.203.

`CCCSC1=C(C#N)C(c2ccc(Cl)cc2Cl)CC(=O)N1` (stereo not drawn) had a z-score of -0.529.

With `CCOCCCN(CCC#N)S(=O)(=O)c1ccc(S(=O)(=O)N2CCCC2)cc1`, the z-score was -0.219.

On to `O=C(O)CC12C[C@H]3C[C@@H](C1)CC(n1ncc(N4CCN(c5ccccc5)CC4)c(Cl)c1=O)(C3)C2`, for which the z-score was -0.11.

For the molecule `COc1ccc(OC)c(/C=C/C(=O)OCC(=O)Nc2cccc(C(C)=O)c2)c1`, the z-score was found to be 0.00375.

`C=CCn1c(SCC(=O)NC2CCS(=O)(=O)C2)nc2sc(CC)cc2c1=O` (stereo not drawn) came in with a z-score of 0.636.

For `Cc1cc(-n2nc(C)cc2C)n2nc(C)c(-c3ccc(Cl)cc3)c2n1`, the z-score was -0.849.

Take `Cc1ccc(-c2nc3ccccc3[nH]2)cc1NC(=O)c1sc2cc(Cl)ccc2c1Cl`: the z-score is 0.107.

`Cn1c(=O)c(C(=O)Nc2cccnc2)c(O)c2ccccc21` had a z-score of 1.29.

As to `Cn1c(C(=O)NCCc2ccsc2)cc2c(=O)n(C)c3ccccc3c21`, the z-score is -0.331.

In turn, `CCOc1ncnc2c1oc1nc(CC(C)C)c3c(c12)CC(C)(C)OC3` showed a z-score of -0.509.

`O=C1C2C3C=CC(C3=C(c3ccccc3)c3ccccc3)C2C(=O)N1Cc1ccccc1` (stereo not drawn) registered a z-score of -0.124.

`N#CCSc1nc2ccccc2c(=O)n1-c1ccccc1` yielded a z-score of -0.383.

`CCOC(=O)N1CCN(C(=S)NC)CC1` yielded a z-score of -0.477.

`CCc1nc(SCc2ccccn2)c2c(=O)n(C)c(=O)n(C)c2n1`: the z-score was -1.4.

Regarding `COc1ccc(-c2cc(-c3n[nH]c(=S)n3-c3cc(OC)ccc3OC)[nH]n2)cc1`, the z-score was -0.241.

As to `CC(C)C(c1nnnn1C1CCCC1)N1CCN(C(=O)c2ccco2)CC1` (stereo not drawn), the z-score worked out at 0.217.

For the molecule `O=C(Nc1nnc(SCc2ccc(Cl)cc2Cl)s1)C1COc2ccccc2O1` (stereo not drawn), the z-score is 0.208.

Take `Clc1ccc(CN2C3=NCCCN3c3ccccc32)cc1`: the z-score amounted to 0.436.

With `COc1cc(NS(=O)(=O)c2ccc(NC(=S)NC(=O)c3sc4ccccc4c3Cl)cc2)ncn1`, the z-score is -0.55.

`COc1ccc(/C=C(\C#N)C(=O)NC2CCS(=O)(=O)C2)cc1OC` (stereo not drawn) yielded a z-score of 0.153.

On to `Cc1ccc(NC(=O)COc2ccc(Br)cc2C)cc1`, for which the z-score was -0.0663.

Regarding `CCC(=O)Nc1cc2c(cc1C(C)=O)OCCO2`, the z-score stood at 0.158.

Turning to `CCCNC(=O)C(C)n1c2ccccc2c2nc(=O)cc(C)n21` (stereo not drawn), the z-score is -0.316.

For the molecule `Cn1c(COc2ccccc2)nnc1SCCC(=O)Nc1ccccc1`, the z-score is -0.47.

`COc1ccc(NCC(=O)N/N=C/C=C\c2ccccc2)cc1` displayed a z-score of -0.18.

`COc1ccc(NC(=O)C(NC(C)=O)C(=O)NCc2ccccc2)cc1` (stereo not drawn) displayed a z-score of 0.0301.

In the case of `c1ccc(Cc2nnc3sc(-c4ccncc4)nn23)cc1`, the z-score was -0.409.

`CCC(Sc1nc(C)cc(C)n1)C(=O)NC1=NN=C(c2ccc(C)cc2)CS1` (stereo not drawn) came in with a z-score of -0.216.

`CCCc1cc(=O)n2c([nH]c3ccccc32)c1C#N` showed a z-score of -0.145.

Turning to `O/N=C(\c1ccc2c(c1)OCCO2)C1CCCCC1`, the z-score came out at 0.198.

`Cc1ccc(-c2nc(CS(=O)(=O)CC(=O)NC3CCCCC3C)c(C)o2)cc1` (stereo not drawn) had a z-score of -0.262.

As for `O=C(c1ccc(N2C(=O)C3CC=C(Cl)CC3C2=O)cc1)N1CCCCC1` (stereo not drawn), the z-score is -0.166.

Consider `COc1ccc(OC)c(NC(=O)C2C3CCC(C3=C(C)C)C2C(=O)O)c1` (stereo not drawn), for which the z-score came to 1.18.

As for `Cc1ccc(-n2nc(C)c(C3(O)C(=O)N(C(C)C)c4ccccc43)c2N)cc1` (stereo not drawn), the z-score is -0.214.

In turn, `O=C(CSc1nc2ccccc2[nH]1)Nc1nc(-c2ccccc2)c(-c2ccccc2)o1` yielded a z-score of -0.201.

In turn, `COC(=O)c1ccccc1NC(=O)C1CCCN(S(=O)(=O)c2ccc(F)cc2)C1` (stereo not drawn) registered a z-score of -2.29.

Turning to `CC(=O)CCc1ccc2oc(C(=O)O)c(C)c2c1`, the z-score is -0.497.

The molecule `CC(=O)NC1CC(C)(C)N(OC(C)=O)C(C)(C)C1` gave a z-score of 0.144.

For `CCOC(=O)COc1cc(OCC(=O)OCC)c2c(=O)cc(-c3ccccc3)oc2c1`, the z-score is -0.568.

On to `CCOC(=O)c1[nH]c2ccc(OC)cc2c1NC(=O)c1ccc2c(c1)OCO2`, for which the z-score was found to be 0.83.

The molecule `CCOC(=O)N1CCC(NS(=O)(=O)c2ccc3c(c2)C(C)(C)C(=O)N3C)CC1` returned a z-score of 0.427.

On to `CCOC(=O)C(C)Oc1ccc2c(-c3cccc([N+](=O)[O-])c3)cc(=O)oc2c1` (stereo not drawn), for which the z-score is -0.491.

Take `CCC(=O)Oc1ccc(C2N(C(=O)CC)CCN2S(=O)(=O)c2ccc(C)cc2)cc1OC` (stereo not drawn): the z-score is -0.0522.

In turn, `CCCCCCn1c(CN2CCC(C)CC2)nc2c1c(=O)n(C)c(=O)n2C` yielded a z-score of -0.775.

In the case of `Cc1noc(C)c1S(=O)(=O)N1CCC(C(=O)N2CCN(c3ccccc3Cl)CC2)CC1`, the z-score is -0.577.

In the case of `CN(C)c1ccc(NC(=O)c2ccc3nsnc3c2)cc1`, the z-score was -0.152.

The molecule `O=C(CN1C(=O)C2C3C=CC(C4CC34)C2C1=O)OCC(=O)c1ccccc1` (stereo not drawn) showed a z-score of -0.112.

As for `CCOC(=O)CNC(=O)Cn1cnc2c(nnn2-c2cccc(Cl)c2)c1=O`, the z-score is -0.134.

In turn, `COc1ccccc1NC(=O)N1CCN(c2ncccn2)CC1` returned a z-score of 0.74.

Consider `CCc1cccc(CC)c1NC(=O)CO/N=C(\C)c1cccs1`, for which the z-score is -1.14.

Take `O=C(COC(=O)C1CC(=O)N(Cc2ccccc2)C1)Nc1ccc2c(c1)OCO2` (stereo not drawn): the z-score is active: -4.56.

Turning to `CCCC(c1nnnn1CCOC)N1CCN(C(=O)c2ccco2)CC1` (stereo not drawn), the z-score was -0.0556.

`O=C(CCNc1ccc(Cl)c(C(F)(F)F)c1)c1ccco1` registered a z-score of -0.274.

Molecule `Cc1ccc(C)c(C2=CSC3=NS(=O)(=O)CCN23)c1` displayed a z-score of -0.128.

In the case of `Cc1ccccc1N(Cc1nnc2n1CCCCC2)C(=O)Nc1ccccc1`, the z-score was -0.143.

With `CCSc1nc(=O)n(-c2ccccc2)c(C)c1C(C)=S`, the z-score is -0.13.

Molecule `COc1ccc2c(c1OC)C(=O)OC2Nc1nc(-c2cc3ccccc3oc2=O)cs1` (stereo not drawn) came in with a z-score of 0.633.

Turning to `CCn1c(SC)nnc1-c1nnc(SC)n1CC`, the z-score is 0.0941.

Molecule `COc1ccc(N2C(=O)CC(N3CCN(c4ccc(S(=O)(=O)N5CCCC5)cc4)CC3)C2=O)cc1` (stereo not drawn) displayed a z-score of 1.43.

In turn, `N#Cc1cc2c(nc1SCc1ccccc1)CCCCC2` registered a z-score of -0.0789.

`O=C(CNC(=O)c1cccs1)NCCN1CCC(Cc2ccccc2)CC1` displayed a z-score of -0.612.

`O=S(=O)(c1cccs1)N1CCC(Cc2ccccc2)CC1` came in with a z-score of -0.0595.

Turning to `COc1ccc(S(=O)(=O)Nc2ccc3c(c2)OCO3)cc1C(=O)O`, the z-score is 1.61.

For the molecule `COc1ccc(/C=C2/C(=O)N=C3SCCN32)cc1`, the z-score was -0.16.

With `CCN1CCN(C(=O)c2cc3sccc3n2CC(=O)c2ccccc2)CC1`, the z-score was -0.119.

The molecule `COCCN(CCOC)C(=O)CCn1c(=O)oc2ccccc21` returned a z-score of 0.976.

In turn, `COc1cc(NC(=O)CCCc2c[nH]c3ccccc23)cc(OC)c1` registered a z-score of -0.283.

In turn, `Cc1ccc(CNC(=O)CCS(=O)(=O)c2ccc(Cl)cc2)cc1` came in with a z-score of -0.472.

`COC(=O)Nc1sccc1C(=O)Nc1sccc1C(=O)OC`: the z-score was -0.429.

`COc1ccccc1OCC(=O)NNC(=O)c1ccoc1C` displayed a z-score of -0.097.

In turn, `S=C(NCCc1ccccc1)N1CCN(Cc2ccccc2)CC1` displayed a z-score of -0.499.

In turn, `CC1CN(CC(O)COc2ccc(C(C)C)cc2)CC(C)O1` (stereo not drawn) showed a z-score of 0.0203.

In turn, `O=C(O)Cc1ccc(NC(=S)NCc2ccco2)cc1` displayed a z-score of -0.186.

Take `CCc1cccc(CC)c1NC(=O)C1CC(=O)N(c2ccc3c(c2)OCCO3)C1` (stereo not drawn): the z-score amounted to 0.0742.

`COc1cc(S(=O)(=O)N2CCOCC2)ccc1NC(=O)CSc1nnc(N)s1`: the z-score was -0.0578.

`CCC(C(=O)NC1CCCC1)N(C(=O)Cn1nnc(-c2ccc(C)cc2)n1)C1CCCC1` (stereo not drawn): the z-score was -0.114.

On to `CCc1nn2c(N3CCOCC3)cc(C)nc2c1-c1ccc(F)cc1`, for which the z-score came out at 0.146.

Take `Cn1c(-c2sc3ccccc3c2Cl)n[nH]c1=S`: the z-score is active: 13.3.

In the case of `O=C(NCc1ccco1)C1(S(=O)(=O)c2ccc(Cl)cc2)CC1`, the z-score was found to be 0.211.

`CC(NC(=O)c1ccccc1Br)c1nnc(SCc2ccc([N+](=O)[O-])cc2)n1C` (stereo not drawn): the z-score is -0.173.

`O=C(c1cc2cc([N+](=O)[O-])ccc2oc1=O)N1CCN(c2ncccn2)CC1` yielded a z-score of -0.0811.

In the case of `Cc1cc(-c2ccccc2)n2ncc(-c3ccccc3)c2n1`, the z-score turned out to be 0.389.

Take `Cc1c(C(N)=O)sc2nc(-c3ccccc3)cn12`: the z-score is -0.498.

Molecule `CCc1c(C)c(C#N)c2nc3ccccc3n2c1NCCN(C)C` gave a z-score of -1.34.

As to `Cc1ccc(OCc2ccc(C#N)cc2)c(C(=O)c2cc(C#N)c(=O)n(C3CC3)c2)c1`, the z-score was -0.119.

`CN(C)C(=S)NC1(C)CCS(=O)(=O)C1` (stereo not drawn) yielded a z-score of -0.154.

As to `CCN(CC)S(=O)(=O)c1ccc(S(=O)(=O)Nc2ccc3c(c2)oc2ccccc23)cc1`, the z-score is 0.00796.

As to `N#Cc1ccccc1NC(=O)CSc1nnc(-c2ccccc2)n1-c1ccccc1`, the z-score was found to be 0.392.

`CCOc1ccc(N/C(=C(/C(Cl)=C(Cl)Cl)[N+](=O)[O-])n2cncn2)cc1` came in with a z-score of -0.895.

The molecule `CCOc1c(Cl)cc(CNCC(C)C)cc1OC` came in with a z-score of 0.338.

`Cc1ccc(/C=N/NC(=O)c2cccs2)s1` returned a z-score of 1.3.

Regarding `CCn1c(NC(=O)c2ccc(C)cc2)c2ccccc2nc1=O`, the z-score was 0.188.

Regarding `CC(C)CCn1c(CN2CCN(Cc3ccccc3)CC2)nc2c1c(=O)[nH]c(=O)n2C`, the z-score was active: 5.8.

Regarding `COc1ccc(/C=N/N2CCN(C)CC2)cc1O`, the z-score is -0.0356.

On to `CCOC(=O)c1c(NC(=O)c2ccc(Cl)cc2)csc1C`, for which the z-score was -0.162.

`O=C(CSc1ccc(Cl)cc1)Nc1cccc(-c2nc3ccccc3[nH]2)c1` gave a z-score of -0.441.
